# Data from PubChem BioAssay AID504333 (National Center for Advancing Translational Sciences (NCATS), 2011).
# Several values for one entry are separate records, joined by “and”; a condition that tells them apart may be missing. Identical values can stand only once. Among all 360,000 compounds or so, about 16,000 (4.4%) were called active. Inconclusive means that the source gave no clear call. Such entries were picked first, then a sample of the others. Calls follow the shape of the dose curve; as a rule, active = well fitted inhibition curve with a large enough effect; inconclusive = small, poorly fitted or top-dose-only effect; inactive = no such curve, though single readings can be large or run the other way. Where the call is inconclusive, the potency comes from a doubtful curve fit.
# Biological target: Bromodomain adjacent to zinc finger domain protein 2B (Homo sapiens) (UniProt Q9UIF8)
# Test: qHTS Assay for Inhibitors of BAZ2B; also: nearly all actives have a fitted effect of over 60% in size
# Conditions: AlphaScreen BAZ2B-H3K14Ac peptide displacement; activity change, negative = inhibition: at 114 µM (top of the series) unless noted
# Summary of the method: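 AlphaScreen displacement of biotin-H3(5-23)K14Ac peptide (50 nM final) from BAZ2B (50 nM final) in PBS pH 7.4, 0.01% Tween-20; complex preformed 30 min RT, then compounds (top 110 uM) 30 min RT, beads 20 min dark.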
# % is scaled to controls: 0 for no effect and ±100 for the full control effect; potency is read from the fitted curve at half-maximal effect; tags tell the direction and shape of the fitted curve.
# Chain of UniProt Q9UIF8 (Q9UIF8 whole entry, looked up, the tested form may be a part): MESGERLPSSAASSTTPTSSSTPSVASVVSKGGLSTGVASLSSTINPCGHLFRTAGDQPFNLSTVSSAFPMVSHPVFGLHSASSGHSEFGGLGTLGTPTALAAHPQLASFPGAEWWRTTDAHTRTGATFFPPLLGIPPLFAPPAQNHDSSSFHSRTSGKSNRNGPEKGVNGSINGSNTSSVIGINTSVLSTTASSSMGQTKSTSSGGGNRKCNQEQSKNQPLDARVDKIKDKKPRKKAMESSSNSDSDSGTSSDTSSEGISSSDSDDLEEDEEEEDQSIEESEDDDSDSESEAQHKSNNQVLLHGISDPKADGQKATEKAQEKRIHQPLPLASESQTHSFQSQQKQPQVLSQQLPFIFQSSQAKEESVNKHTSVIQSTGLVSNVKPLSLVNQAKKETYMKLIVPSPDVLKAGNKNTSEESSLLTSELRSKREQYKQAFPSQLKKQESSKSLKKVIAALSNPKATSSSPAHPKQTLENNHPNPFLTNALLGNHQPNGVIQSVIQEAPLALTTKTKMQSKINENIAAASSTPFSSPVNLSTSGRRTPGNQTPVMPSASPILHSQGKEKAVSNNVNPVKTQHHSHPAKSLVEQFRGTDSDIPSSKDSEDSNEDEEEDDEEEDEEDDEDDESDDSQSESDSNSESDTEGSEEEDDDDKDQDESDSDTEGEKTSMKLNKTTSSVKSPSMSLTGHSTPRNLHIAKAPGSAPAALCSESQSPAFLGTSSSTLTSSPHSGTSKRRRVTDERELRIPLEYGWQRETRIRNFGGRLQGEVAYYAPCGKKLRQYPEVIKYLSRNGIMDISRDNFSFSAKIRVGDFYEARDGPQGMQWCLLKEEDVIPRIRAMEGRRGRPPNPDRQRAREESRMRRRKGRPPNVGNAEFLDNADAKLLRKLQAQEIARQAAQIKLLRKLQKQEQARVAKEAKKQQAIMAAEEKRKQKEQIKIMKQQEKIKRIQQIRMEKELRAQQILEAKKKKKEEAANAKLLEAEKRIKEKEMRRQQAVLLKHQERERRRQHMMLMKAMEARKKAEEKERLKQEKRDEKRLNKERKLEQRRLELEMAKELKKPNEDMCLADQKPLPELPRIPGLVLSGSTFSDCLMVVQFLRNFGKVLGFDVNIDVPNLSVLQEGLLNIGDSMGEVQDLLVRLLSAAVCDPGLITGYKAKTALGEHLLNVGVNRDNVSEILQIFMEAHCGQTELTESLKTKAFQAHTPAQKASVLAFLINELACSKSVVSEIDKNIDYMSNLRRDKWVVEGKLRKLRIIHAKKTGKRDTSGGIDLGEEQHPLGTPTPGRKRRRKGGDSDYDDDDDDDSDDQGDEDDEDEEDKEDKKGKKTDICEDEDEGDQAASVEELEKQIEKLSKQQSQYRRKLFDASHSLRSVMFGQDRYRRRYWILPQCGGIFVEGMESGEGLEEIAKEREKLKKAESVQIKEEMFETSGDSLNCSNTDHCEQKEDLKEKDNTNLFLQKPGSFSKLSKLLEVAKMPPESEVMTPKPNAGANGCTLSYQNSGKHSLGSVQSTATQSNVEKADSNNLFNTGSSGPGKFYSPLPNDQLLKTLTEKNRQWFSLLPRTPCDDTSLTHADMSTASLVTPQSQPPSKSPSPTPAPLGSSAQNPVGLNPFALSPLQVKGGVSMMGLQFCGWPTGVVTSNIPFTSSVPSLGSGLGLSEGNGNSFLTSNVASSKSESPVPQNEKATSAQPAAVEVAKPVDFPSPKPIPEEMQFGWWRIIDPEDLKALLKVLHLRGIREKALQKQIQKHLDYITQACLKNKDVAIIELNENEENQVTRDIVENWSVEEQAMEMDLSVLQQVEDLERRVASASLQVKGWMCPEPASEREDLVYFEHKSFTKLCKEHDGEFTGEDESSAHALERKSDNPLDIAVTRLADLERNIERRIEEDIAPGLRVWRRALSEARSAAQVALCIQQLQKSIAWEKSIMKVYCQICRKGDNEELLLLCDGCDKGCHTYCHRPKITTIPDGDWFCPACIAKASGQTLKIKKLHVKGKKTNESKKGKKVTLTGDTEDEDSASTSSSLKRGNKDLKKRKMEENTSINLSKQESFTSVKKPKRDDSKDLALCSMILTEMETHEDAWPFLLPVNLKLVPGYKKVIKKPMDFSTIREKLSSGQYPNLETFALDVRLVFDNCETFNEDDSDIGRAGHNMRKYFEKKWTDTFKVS
SMILES,Potency,"activity change, negative = inhibition"
CCc1ccc2c(c1)c(=O)c(S(=O)(=O)c1ccc(Cl)cc1)cn2CC,active: 56.2 µM,
COc1ccc(CCNC(=S)NCc2ccc(Cl)c(Cl)c2)cc1OC,"inconclusive: 70.8 µM [inhibitor, single point]",
O=C(Cc1ccccc1)Nc1sc2c(c1C(=O)Nc1ccccc1)CCCCC2,"inconclusive: 70.8 µM [inhibitor, partial curve]",
Cc1csc2nc(SCC(=O)Nc3ccccc3F)[nH]c(=O)c12,,inactive: -20.6%
CCc1ccc(-c2cc(C)no2)cc1S(=O)(=O)N1CCN(c2ccc(OC)cc2)CC1,"inconclusive: 3.55 µM [inhibitor, full curve]",
O=[N+]([O-])c1ccccc1NCCOc1ccccc1,active: 22.4 µM,
COc1ccccc1C(=O)Nc1nnc(-c2ccco2)s1,"inconclusive: 89.1 µM [inhibitor, single point]",
CN(C)c1ccc(/C=N/NC(=O)c2ccccn2)cc1,"inconclusive: 79.4 µM [inhibitor, single point]",
Cc1cc(C)c2c(N)c3cccc(C)c3nc2n1,,inactive: -32.9%
Cn1c([N+](=O)[O-])cnc1N1CCN(c2nncs2)C1=O,"inconclusive: 70.8 µM [inhibitor, partial curve, poor fit]",
COc1ccc(O)c(CN2CCCC(N3CCN(c4ccc(F)cc4)CC3)C2)c1 (stereo unspecified),"inconclusive: 50.1 µM [inhibitor, partial curve]",
O=C(NCc1ccco1)/C(=C/C=C\c1ccccc1)NC(=O)c1ccc(Br)o1,"inconclusive: 50.1 µM [inhibitor, partial curve]",
Cc1ccc(Nc2c(-c3ccc(N(C)C)cc3)nc3nc[nH]n23)cc1,"inconclusive: 1.58 µM [inhibitor, full curve, poor fit]",
Cc1nc2cc(C(F)(F)F)ccc2n1CCNc1nc(-c2cc(Cl)c(N)c(Cl)c2)cs1,"inconclusive: 44.7 µM [inhibitor, partial curve]",
c1ccc(-c2onc(-c3ccco3)c2-c2ccc3[nH]ccc3c2)cc1,"inconclusive: 79.4 µM [inhibitor, single point]",
CCNC(=O)/C(C#N)=C/c1c(N2CCN(Cc3ccc4c(c3)OCO4)CC2)nc2c(C)cccn2c1=O,"inconclusive: 50.1 µM [inhibitor, partial curve]",
O=[N+]([O-])c1ccc2nc(-[n+]3c(-c4ccccc4)cc(-c4ccccc4)cc3-c3ccccc3)[nH]c2c1,"inconclusive: 89.1 µM [inhibitor, single point]",
NC(=O)CC[C@H](NC(=O)c1ccc(F)cc1)C(=O)OCC(=O)NCc1ccc(F)cc1,,inactive: -0.2%
NC(=O)c1oc2ccccc2c1NC(=O)C1COc2ccccc2O1 (stereo unspecified),,inactive: -10.3%
CCCC(c1nnnn1C1CCCCC1)N1CCN(C2CCCC2)CC1 (stereo unspecified),"inconclusive: 89.1 µM [inhibitor, single point]",
CSCc1cc(N(C)c2ccccc2)nc(-c2ccccn2)n1,"inconclusive: 79.4 µM [inhibitor, partial curve]",
CCC1(c2ccccc2)NC(=O)N(CC(=O)Nc2ccc(N3CCCC3)cc2C)C1=O (stereo unspecified),active: 44.7 µM,
O=C(c1ccccc1Br)N1CCc2c([nH]c3ccccc23)C1,"inconclusive: 44.7 µM [inhibitor, partial curve]",
CNS(=O)(=O)c1cccc(C(=O)NCC(c2cccs2)N2CCOCC2)c1 (stereo unspecified),"inconclusive: 89.1 µM [inhibitor, single point]",

SMILES,Potency,"activity change, negative = inhibition"
CN1CCN(c2cc(-c3cc(O)c4ncccc4c3)ccn2)CC1,active: 20 µM and active: 7.94 µM,
O=C(Nc1sc2c(c1C(=O)O)CCC2)c1ccc(F)cc1,"inconclusive: 56.2 µM [inhibitor, partial curve]",
O=C(O)C1Nc2c(C(=O)N3CCOCC3)cccc2C2C=CCC12 (stereo unspecified),active: 20 µM,
Cc1cc2c(cc1C)N(C(=O)CSC1=NCCS1)C(C)(C)c1ssc(=S)c1-2,active: 8.91 µM,
Cc1ccc(C)c(OCC(=O)Nc2cc(NC(=O)COc3cc(C)ccc3C)cc(C(=O)O)c2)c1,"inconclusive: 89.1 µM [inhibitor, single point]",
C/C(CC(=O)Nc1ccc(N(C)C)cc1)=N\NC(=O)C(=O)NCc1ccccc1,"inconclusive: 39.8 µM [inhibitor, partial curve]",
CCCCn1cc2c(c1-c1ccccc1Br)c(=O)n(C)c(=O)n2C,"inconclusive: 56.2 µM [inhibitor, partial curve]",
Cc1cccc(-c2onc3ccc(C(=O)/C=C/N(C)C)cc23)c1,"inconclusive: 70.8 µM [inhibitor, partial curve]",
O=C(O)CS(=O)(=O)CC(=O)NCc1cccc(C(F)(F)F)c1,"inconclusive: 89.1 µM [inhibitor, single point]",
COC(=O)C1=C(C)N=c2s/c(=C3\C(=O)Nc4ccccc43)c(=O)n2C1c1ccccc1 (stereo unspecified),active: 7.94 µM,
CC(C(=O)O)N1C(=O)/C(=C/C=C/c2ccco2)SC1=S (stereo unspecified),active: 2.51 µM,
CCOc1cc(/C=C2/SC(=S)N(Cc3ccccc3)C2=O)ccc1O,active: 22.4 µM,
CNC(=S)N(C)/N=C1/C(=O)N(Cc2c(Cl)cccc2Cl)c2ccccc21,active: 25.1 µM,
CSC1=N/C(=C\c2ccc(C)s2)C(=O)S1,,inactive: -1.8%
CC(C)(C)C(=O)Nc1ccccc1C(=O)NCCCn1ccnc1,active: 17.8 µM,
COc1ccc(-c2n[nH]c(=S)n2/N=C/c2cccn2C)cc1,,inactive: -35.3%
Cc1ccc(CC(=O)NCc2ccc3c(c2)OCO3)cc1,,inactive: 3.77%
CC(C)NC(=O)Cn1cc(C(=O)COc2ccccc2)c2ccccc21,,inactive: -28.5%
COc1cccc(-n2c(-c3ccc(Cl)cc3)cc3c2CC(C)(C)CC3=O)c1,active: 8.91 µM,
O=C(Nc1ccc(F)cc1F)C(Cc1ccccc1)N1Cc2ccccc2C1=O (stereo unspecified),,inactive: 1.26%
CCOc1ccc(C2c3[nH]c4ccccc4c3CCN2Cc2cn(CC)nc2C)cc1 (stereo unspecified),"inconclusive: 44.7 µM [inhibitor, partial curve]",
COc1cc(OC)c(NC(=O)CC(c2cccs2)N2Cc3ccccc3C2=O)cc1Cl (stereo unspecified),"inconclusive: 89.1 µM [inhibitor, single point]",
COc1cc2c(cc1OC)C(COc1ccc(F)cc1)N(C(=O)c1ccco1)CC2 (stereo unspecified),"inconclusive: 89.1 µM [inhibitor, single point]",
COc1cc2nc(-c3ccccc3)nc(N3CCCC3)c2cc1OC,"inconclusive: 89.1 µM [inhibitor, single point]",

SMILES,Potency,"activity change, negative = inhibition"
C=C(C)CSc1nnc(-c2cc(OC)c(OC)c(OC)c2)n1N,"inconclusive: 89.1 µM [inhibitor, single point]",
CCC(C(=O)Nc1cc(C)on1)c1ccccc1 (stereo unspecified),"inconclusive: 14.1 µM [inhibitor, single point]",
COc1ccc(N2CC(C(=O)NCc3n[nH]c(=O)c4ccccc34)CC2=O)cc1 (stereo unspecified),,inactive: 8.08%
Cc1ccc(N2CCN(C(=O)c3cccs3)CC2)cc1C,active: 50.1 µM,
CCC(C)c1ccc(NC(=O)c2cnn3c(C(F)F)cc(C)nc23)cc1 (stereo unspecified),"inconclusive: 79.4 µM [inhibitor, partial curve]",
O=C(Nc1nc(-c2ccccc2)cs1)c1cccc([N+](=O)[O-])c1,active: 39.8 µM,
CCCn1c(SCc2nc3ccccc3s2)n[nH]c1=O,,inactive: -12.4%
COc1cccc(OCc2cc(C(=O)NCc3ccc4c(c3)OCO4)no2)c1,,inactive: -16.3%
CN(C)c1ccc(N=Nc2ccccc2C(=O)OCC(=O)N2CCCC2)cc1,active: 39.8 µM,
CC(=O)c1ccc(OCC(=O)Nc2ccccc2N2CCCC2)cc1,"inconclusive: 70.8 µM [inhibitor, partial curve]",
Cc1cc(NS(=O)(=O)c2ccc(NC(=O)/C=C/c3cccc(Cl)c3)cc2)no1,"inconclusive: 100 µM [inhibitor, partial curve, poor fit]",
CCN(CC)c1ccc(NC(=O)CCNS(=O)(=O)c2ccc3c(c2)CCC(=O)N3)c(C)c1,active: 35.5 µM,
Cc1ccccc1NC(=O)c1cn2c(nc3ccccc32)c(C#N)c1C,,inactive: -0.604%
COc1cccc(C(=O)N2c3nc(-c4ccco4)nn3C3(CCCCC3)[C@@H]3CCCC[C@@H]32)c1,"inconclusive: 39.8 µM [inhibitor, partial curve]",
CCc1nn(C(C)C(=O)N2CCN(c3cccc(C(F)(F)F)c3)CC2)c(=O)c2cc3occc3n12 (stereo unspecified),"inconclusive: 28.2 µM [inhibitor, partial curve]",
Cc1ccc(NC(=O)CNS(=O)(=O)c2cccs2)cc1F,,inactive: -35.5%
COc1cc2[nH]c(=S)n(CCN3CCOCC3)c(=O)c2cc1OC,"inconclusive: 89.1 µM [inhibitor, single point]",
O=C(CC1C(=O)NCCN1C(=S)Nc1ccccc1)Nc1ccc2c(c1)OCCO2 (stereo unspecified),"inconclusive: 100 µM [inhibitor, single point]",
CN(C)S(=O)(=O)n1cc(/C=C(\NC(=O)c2ccccc2Cl)C(=O)NCCCn2ccnc2)c2ccccc21,"inconclusive: 28.2 µM [inhibitor, single point]",
O=C(NCCc1ccccc1)C1(c2cccs2)CCOCC1,,inactive: -12.3%
CN1CCc2c(sc3nc(SCC(=O)N4CCOCC4)n(-c4ccc(Cl)cc4)c(=O)c23)C1,"inconclusive: 79.4 µM [inhibitor, single point]",
COC(=O)c1ccccc1NC(=O)c1cc2ncc(Br)cn2n1,"inconclusive: 89.1 µM [inhibitor, single point]",
O=C(O)/C=C/C(=O)NNC(=O)c1cc(-c2ccccc2)n[nH]1,,inactive: -1.66%
